The whole screen tested about 150,000 compounds, of which about 540 (0.36%) showed an effect of 50% or more. Some of the results follow.
The molecules below were run on Plasmodium falciparum (assay: Primary screen in NF54 nanoGlo assay, in single point, at 2uM, 72h; a lower Z score goes with more inhibition). Settings: timepoint 72 hour.
Format: functional, Erythrocyte

SMILES	% Inhibition	Z score
Cn1cncc1CC(=O)N1CCN(Cc2ccccc2)C(=O)C1(C)C	-14%	1.91
Cc1ccc2oc(N3CCC(NCCc4ccnn4C)CC3)nc2c1	-3%	0.39
O=C(NC1CCN(Cc2ccccc2F)CC1)C1(N2CCCCC2)CCCCC1	-8%	1.12
COc1ccc(C2CC(c3ccc(Cl)cc3)N(C(C)=O)c3ncnn32)cc1 (stereo unspecified)	27%	-3.03
CC(C)(C)C1OCCCC1CNC(=O)N1CCC2CCCCC21 (stereo unspecified)	-6%	1.16
Cn1c([C@H]2CCN(Cc3ncc[nH]3)C2)nc2ccccc21	-3%	0.41
Cc1ncc(C(=O)N2CCC(Oc3ccc(Cl)cc3)CC2)c(C)n1	-11%	1.95
COCCn1cc(C(=O)NC[C@H](O)c2ccc(Cl)cc2)c(C)n1	1%	-0.14
CCCc1cc(C(=O)NCCN2CCCCC2)cs1	-18%	2.61
CCOc1ccc(Br)cc1N	-7%	1.36
Cc1cc(C)c2c(c1)-c1c(ssc1=S)C(C)(C)N2C(=O)[C@H](Cc1ccccc1)N1C(=O)c2ccccc2C1=O	-5%	0.67
COc1cnc(NC(=O)N2CCO[C@@H](CS(C)(=O)=O)C2)s1	-12%	2.4
CCn1cc([C@@H]2CC(=O)Nc3cc(Oc4ccccc4)ccc32)c(C)n1	-3%	0.66
CCCn1cc(CN/C(=N\c2ccc(OC)cc2)NC(=O)c2cccc(Cl)c2)c(C)n1	-8%	1.33
Cc1csc(CNC(=O)c2ccccc2C(=O)c2ccc(F)cc2)n1	-2%	0.39
CC(=O)Nc1cccc(NC(=O)Cn2ccc(-c3ccccc3)n2)c1	-5%	0.99
Cc1ncc(Cl)c(C(=O)OCCn2cccn2)n1	-2%	0.27
Cc1n[nH]c(C(=O)NC(c2ccccc2)C2CCOC2)c1C (stereo unspecified)	-5%	1.03
CCCn1cnc(C(N)=O)c1NC(=O)CCc1c(C)noc1C	-10%	1.44
COc1cccc(-n2nc(C)c(CCC(=O)NCC3(N4CCOCC4)CCCCC3)c2C)c1	2%	-0.28
Cc1nn(C)c2nc(-c3ccco3)cc(C(=O)N(Cc3nc4ccccc4c(=O)[nH]3)C(C)C)c12	-8%	1.09
N#CC1(NC(=O)[C@H]2CC(=O)N(c3cc(F)cc(F)c3)C2)CCOCC1	-7%	0.98
O=C1NCCCc2occ(C(=O)N3CC[C@H](C(F)(F)F)C3)c21	-12%	2.56

Reference: ChEMBL document CHEMBL4888484, “Replenishing the malaria drug discovery pipeline: Screening and hit evaluation of the MMV Hit Generation Library 1 (HGL1) against asexual blood stage Plasmodium falciparum ,using a nano luciferase reporter read-out” (2022)
